This passage reports binding results from PMC4344508.

The chains behind the UniProt entries cited, without tags or fusion partners.
UniProt Q13838: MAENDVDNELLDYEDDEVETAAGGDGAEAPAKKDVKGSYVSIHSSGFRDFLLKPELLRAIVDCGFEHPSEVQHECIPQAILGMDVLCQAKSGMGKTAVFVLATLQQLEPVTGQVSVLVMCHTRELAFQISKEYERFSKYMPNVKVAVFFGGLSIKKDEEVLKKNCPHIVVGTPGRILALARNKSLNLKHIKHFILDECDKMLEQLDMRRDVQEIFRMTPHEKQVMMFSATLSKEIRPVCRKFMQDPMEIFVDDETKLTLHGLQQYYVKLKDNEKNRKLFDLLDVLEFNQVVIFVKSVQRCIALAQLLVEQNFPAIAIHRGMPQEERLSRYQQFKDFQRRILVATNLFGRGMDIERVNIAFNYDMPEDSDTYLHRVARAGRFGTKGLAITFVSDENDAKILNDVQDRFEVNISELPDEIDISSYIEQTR

Results are given in words; binding and its absence hold for the method and conditions named. For some of these results: In cells and extracts the contact can be indirect. Some binding calls cover weakened binding; strength is not graded here. For some of these results: Sequences can lack the tags named with a protein.

The target of test [1] is T1, GST-Nxf1:p15 (UniProt Q9UBU9).
T1 sequence 1: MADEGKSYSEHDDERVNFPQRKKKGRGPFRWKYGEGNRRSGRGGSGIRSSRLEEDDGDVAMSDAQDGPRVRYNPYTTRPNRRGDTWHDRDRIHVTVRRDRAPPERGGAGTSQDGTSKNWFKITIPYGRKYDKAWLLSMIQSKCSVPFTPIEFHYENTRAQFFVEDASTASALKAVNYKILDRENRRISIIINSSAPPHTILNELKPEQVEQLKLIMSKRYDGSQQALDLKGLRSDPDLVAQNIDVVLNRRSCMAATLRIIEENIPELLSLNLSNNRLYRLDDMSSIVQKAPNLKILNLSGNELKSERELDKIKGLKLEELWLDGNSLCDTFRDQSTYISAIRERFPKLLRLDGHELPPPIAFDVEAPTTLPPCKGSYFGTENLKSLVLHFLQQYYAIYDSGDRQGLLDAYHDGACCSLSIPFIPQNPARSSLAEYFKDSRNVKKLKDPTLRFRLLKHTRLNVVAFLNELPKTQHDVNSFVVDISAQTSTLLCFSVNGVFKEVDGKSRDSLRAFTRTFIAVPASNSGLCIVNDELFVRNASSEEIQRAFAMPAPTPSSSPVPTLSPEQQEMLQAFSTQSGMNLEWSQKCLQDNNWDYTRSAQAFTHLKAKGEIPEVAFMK
T1 sequence 2: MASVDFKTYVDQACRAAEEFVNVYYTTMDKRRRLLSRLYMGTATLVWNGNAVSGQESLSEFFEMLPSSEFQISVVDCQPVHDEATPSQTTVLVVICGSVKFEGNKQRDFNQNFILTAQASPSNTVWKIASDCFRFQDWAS
In words: pull-down; GST-Nxf1:p15 or GST-Uap56 as bait, 35S-labelled Luzp4 truncations as prey, phosphoimage; RB100 buffer with 10 μg/ml RNase A; only the target purified.

Test [2] concerns the target T1, GST-Nxf1:p15. Briefly: pull-down; Nxf1 remodelling assay: Luzp4 pre-incubated with a 32P-labelled RNA oligonucleotide, incubated with immobilized GST or GST-Nxf1:p15, complexes purified by GST pull-down and eluted; both purified.
Test [3] deals with T1, GST-Nxf1:p15. In words: pull-down; GST fusions as bait, purified Luzp4 produced in E. coli as prey; RB100 buffer (25 mM HEPES pH 7.5, 100 mM KOAc, 10 mM MgCl2, 1 mM dithiothreitol, 0.05% Triton X-100, 10% glycerol, 10 μg/ml RNase A); both purified.
For test [4], the target named is GST-Uap56 (UniProt Q13838). The test is described as above.
For the next test, the target named is T2, FLAG-Nxf1-myc (UniProt Q9UBU9).
T2 sequence: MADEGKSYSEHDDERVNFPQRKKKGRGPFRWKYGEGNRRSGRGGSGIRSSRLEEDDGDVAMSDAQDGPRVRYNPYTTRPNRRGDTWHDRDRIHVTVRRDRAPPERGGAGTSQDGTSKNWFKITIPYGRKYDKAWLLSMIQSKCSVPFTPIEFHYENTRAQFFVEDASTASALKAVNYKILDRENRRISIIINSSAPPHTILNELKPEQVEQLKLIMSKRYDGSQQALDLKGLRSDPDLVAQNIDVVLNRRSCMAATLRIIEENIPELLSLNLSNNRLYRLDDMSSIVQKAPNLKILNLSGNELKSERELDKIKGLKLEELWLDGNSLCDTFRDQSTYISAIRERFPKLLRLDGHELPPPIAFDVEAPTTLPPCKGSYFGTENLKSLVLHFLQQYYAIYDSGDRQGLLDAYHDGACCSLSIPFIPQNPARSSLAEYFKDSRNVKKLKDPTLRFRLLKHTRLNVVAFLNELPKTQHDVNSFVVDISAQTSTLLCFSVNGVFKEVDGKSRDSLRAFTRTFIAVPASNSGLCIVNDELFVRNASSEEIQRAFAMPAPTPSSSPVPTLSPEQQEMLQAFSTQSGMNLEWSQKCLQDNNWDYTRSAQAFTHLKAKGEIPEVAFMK
Briefly: co-IP; FLAG-tagged baits expressed in human cells; IP lysis buffer (50 mM HEPES pH 7.5, 100 mM NaCl, 1 mM EDTA, 1 mM dithiothreitol, 0.5% Triton X-100, 10% glycerol), with or without 10 μg/ml RNase A; western blot. In general terms: Immunoblotting shows a protein as a band on a membrane.

The target in another test is FLAG-Uap56-myc (UniProt Q13838). The test is described as above.
The target of a further test is T3, Nxf2 (human) (UniProt Q9GZY0).
T3 sequence: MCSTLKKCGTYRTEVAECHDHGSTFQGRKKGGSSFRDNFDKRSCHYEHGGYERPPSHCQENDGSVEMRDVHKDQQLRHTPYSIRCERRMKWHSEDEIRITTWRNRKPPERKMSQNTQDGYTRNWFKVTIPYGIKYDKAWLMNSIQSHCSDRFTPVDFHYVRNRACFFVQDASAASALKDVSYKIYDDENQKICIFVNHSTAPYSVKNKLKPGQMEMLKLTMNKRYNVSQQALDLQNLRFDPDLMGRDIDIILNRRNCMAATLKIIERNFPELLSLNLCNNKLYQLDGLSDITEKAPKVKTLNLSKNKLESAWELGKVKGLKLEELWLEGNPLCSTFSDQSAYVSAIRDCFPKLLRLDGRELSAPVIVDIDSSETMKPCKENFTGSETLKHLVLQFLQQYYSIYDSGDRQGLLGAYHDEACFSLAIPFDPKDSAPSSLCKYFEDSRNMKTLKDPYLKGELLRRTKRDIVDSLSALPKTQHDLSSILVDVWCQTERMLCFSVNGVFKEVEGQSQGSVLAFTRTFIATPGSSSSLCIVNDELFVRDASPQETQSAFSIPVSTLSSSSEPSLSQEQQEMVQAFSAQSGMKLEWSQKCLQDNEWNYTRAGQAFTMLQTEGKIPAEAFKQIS
In words: co-IP; Supplementary Figure S2A; constructs and cells not told in the text shown.

For the next test, the target named is T4, GB1-Nxf1 aa 1–198 (UniProt Q9UBU9).
T4 sequence: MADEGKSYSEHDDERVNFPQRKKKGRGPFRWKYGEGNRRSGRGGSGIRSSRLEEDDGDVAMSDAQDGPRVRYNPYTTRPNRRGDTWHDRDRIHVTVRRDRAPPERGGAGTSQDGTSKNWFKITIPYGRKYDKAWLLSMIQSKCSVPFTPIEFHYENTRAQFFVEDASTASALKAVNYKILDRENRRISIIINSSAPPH
Briefly: pull-down; IgG-Sepharose pull-down, purified GB1-tagged Nxf1 proteins as bait, 35S-Luzp4 as prey, phosphoimage; only the target purified.

The target of test [5] is GST-Uap56 (UniProt Q13838). In words: pull-down; GST-Nxf1:p15 or GST-Uap56 as bait, 35S-labelled Luzp4 truncations as prey, phosphoimage; RB100 buffer with 10 μg/ml RNase A; only the target purified.

B1: Luzp4 aa 1–240 (35S-labelled truncation) (domain or fragment, UniProt Q9P127-1 1-240)
chain: MASFRKLTLSEKVPPNHPSRKKVNFLDMSLDDIIIYKELEGTNAEEEKNKRQNHSKKESPSRQQSKAHRHRHRRGYSRCRSNSEEGNHDKKPSQKPSGFKSGQHPLNGQPLIEQEKCSDNYEAQAEKNQGQSEGNQHQSEGNPDKSEESQGQPEENHHSERSRNHLERSLSQSDRSQGQLKRHHPQYERSHGQYKRSHGQSERSHGHSERSHGHSERSHGHSERSHGHSKRSRSQGDLVD
modifications: 35S label
On to B1, for which, in the test with GST-Nxf1:p15 [1], the binding result was “binds weakly”.

B2: Luzp4–6His (protein, UniProt Q9P127-1 1-313)
chain: MASFRKLTLSEKVPPNHPSRKKVNFLDMSLDDIIIYKELEGTNAEEEKNKRQNHSKKESPSRQQSKAHRHRHRRGYSRCRSNSEEGNHDKKPSQKPSGFKSGQHPLNGQPLIEQEKCSDNYEAQAEKNQGQSEGNQHQSEGNPDKSEESQGQPEENHHSERSRNHLERSLSQSDRSQGQLKRHHPQYERSHGQYKRSHGQSERSHGHSERSHGHSERSHGHSERSHGHSKRSRSQGDLVDTQSDLIATQRDLIATQKDLIATQRDLIATQRDLIVTQRDLVATERDLINQSGRSHGQSERHQRYSTGKNTITT
Take B2: the binding result with GST-Nxf1:p15 [2], with GST-Nxf1:p15 [3] and with GST-Uap56 [4] was “binds” throughout.

B3: Luzp4-myc (protein, UniProt Q9P127-1 1-313)
chain: MASFRKLTLSEKVPPNHPSRKKVNFLDMSLDDIIIYKELEGTNAEEEKNKRQNHSKKESPSRQQSKAHRHRHRRGYSRCRSNSEEGNHDKKPSQKPSGFKSGQHPLNGQPLIEQEKCSDNYEAQAEKNQGQSEGNQHQSEGNPDKSEESQGQPEENHHSERSRNHLERSLSQSDRSQGQLKRHHPQYERSHGQYKRSHGQSERSHGHSERSHGHSERSHGHSERSHGHSKRSRSQGDLVDTQSDLIATQRDLIATQKDLIATQRDLIATQRDLIVTQRDLVATERDLINQSGRSHGQSERHQRYSTGKNTITT
B3: the binding entry with FLAG-Nxf1-myc and with FLAG-Uap56-myc was “binds” in each case.

B4: Luzp4 (construct of the co-IP with Nxf2) (protein, UniProt Q9P127-1 1-313)
chain: MASFRKLTLSEKVPPNHPSRKKVNFLDMSLDDIIIYKELEGTNAEEEKNKRQNHSKKESPSRQQSKAHRHRHRRGYSRCRSNSEEGNHDKKPSQKPSGFKSGQHPLNGQPLIEQEKCSDNYEAQAEKNQGQSEGNQHQSEGNPDKSEESQGQPEENHHSERSRNHLERSLSQSDRSQGQLKRHHPQYERSHGQYKRSHGQSERSHGHSERSHGHSERSHGHSERSHGHSKRSRSQGDLVDTQSDLIATQRDLIATQKDLIATQRDLIATQRDLIVTQRDLVATERDLINQSGRSHGQSERHQRYSTGKNTITT
As for B4, in the test with Nxf2 (human), the binding entry is “binds”.

B5: 35S-Luzp4 (protein, UniProt Q9P127-1 1-313)
chain: MASFRKLTLSEKVPPNHPSRKKVNFLDMSLDDIIIYKELEGTNAEEEKNKRQNHSKKESPSRQQSKAHRHRHRRGYSRCRSNSEEGNHDKKPSQKPSGFKSGQHPLNGQPLIEQEKCSDNYEAQAEKNQGQSEGNQHQSEGNPDKSEESQGQPEENHHSERSRNHLERSLSQSDRSQGQLKRHHPQYERSHGQYKRSHGQSERSHGHSERSHGHSERSHGHSERSHGHSKRSRSQGDLVDTQSDLIATQRDLIATQKDLIATQRDLIATQRDLIVTQRDLVATERDLINQSGRSHGQSERHQRYSTGKNTITT
modifications: 35S label
Consider B5, for which the binding result with GB1-Nxf1 aa 1–198 is on record as “binds”.

B6: Luzp4 aa 1–119 (35S-labelled truncation) (domain or fragment, UniProt Q9P127-1 1-119)
chain: MASFRKLTLSEKVPPNHPSRKKVNFLDMSLDDIIIYKELEGTNAEEEKNKRQNHSKKESPSRQQSKAHRHRHRRGYSRCRSNSEEGNHDKKPSQKPSGFKSGQHPLNGQPLIEQEKCSD
modifications: 35S label
On to B6, for which, in the test with GST-Uap56 [5], the binding result is reported as “binds”.

B7: Luzp4 aa 119–313 (35S-labelled truncation) (domain or fragment, UniProt Q9P127-1 119-313)
chain: DNYEAQAEKNQGQSEGNQHQSEGNPDKSEESQGQPEENHHSERSRNHLERSLSQSDRSQGQLKRHHPQYERSHGQYKRSHGQSERSHGHSERSHGHSERSHGHSERSHGHSKRSRSQGDLVDTQSDLIATQRDLIATQKDLIATQRDLIATQRDLIVTQRDLVATERDLINQSGRSHGQSERHQRYSTGKNTITT
modifications: 35S label
Regarding B7, the binding entry in the test with GST-Uap56 [5] was “no binding”.
